Results: publication PMC4336329 (PLoS ONE, 2015)
About 14,000 (4.5%) of roughly 310,000 compounds showed an effect of 50% or more. Effects have a minus sign here. The list shows a part of the results.

target: human ether-à-go-go-related gene (hERG) potassium channel (human, UniProt Q12809); test: primary screen, population patch clamp on CHO cells stably expressing hERG
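Also: peak tail current of the secondary pulse compared with the same well before compound.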

Sequence of human ether-à-go-go-related gene (hERG) potassium channel (Q12809 whole entry, looked up): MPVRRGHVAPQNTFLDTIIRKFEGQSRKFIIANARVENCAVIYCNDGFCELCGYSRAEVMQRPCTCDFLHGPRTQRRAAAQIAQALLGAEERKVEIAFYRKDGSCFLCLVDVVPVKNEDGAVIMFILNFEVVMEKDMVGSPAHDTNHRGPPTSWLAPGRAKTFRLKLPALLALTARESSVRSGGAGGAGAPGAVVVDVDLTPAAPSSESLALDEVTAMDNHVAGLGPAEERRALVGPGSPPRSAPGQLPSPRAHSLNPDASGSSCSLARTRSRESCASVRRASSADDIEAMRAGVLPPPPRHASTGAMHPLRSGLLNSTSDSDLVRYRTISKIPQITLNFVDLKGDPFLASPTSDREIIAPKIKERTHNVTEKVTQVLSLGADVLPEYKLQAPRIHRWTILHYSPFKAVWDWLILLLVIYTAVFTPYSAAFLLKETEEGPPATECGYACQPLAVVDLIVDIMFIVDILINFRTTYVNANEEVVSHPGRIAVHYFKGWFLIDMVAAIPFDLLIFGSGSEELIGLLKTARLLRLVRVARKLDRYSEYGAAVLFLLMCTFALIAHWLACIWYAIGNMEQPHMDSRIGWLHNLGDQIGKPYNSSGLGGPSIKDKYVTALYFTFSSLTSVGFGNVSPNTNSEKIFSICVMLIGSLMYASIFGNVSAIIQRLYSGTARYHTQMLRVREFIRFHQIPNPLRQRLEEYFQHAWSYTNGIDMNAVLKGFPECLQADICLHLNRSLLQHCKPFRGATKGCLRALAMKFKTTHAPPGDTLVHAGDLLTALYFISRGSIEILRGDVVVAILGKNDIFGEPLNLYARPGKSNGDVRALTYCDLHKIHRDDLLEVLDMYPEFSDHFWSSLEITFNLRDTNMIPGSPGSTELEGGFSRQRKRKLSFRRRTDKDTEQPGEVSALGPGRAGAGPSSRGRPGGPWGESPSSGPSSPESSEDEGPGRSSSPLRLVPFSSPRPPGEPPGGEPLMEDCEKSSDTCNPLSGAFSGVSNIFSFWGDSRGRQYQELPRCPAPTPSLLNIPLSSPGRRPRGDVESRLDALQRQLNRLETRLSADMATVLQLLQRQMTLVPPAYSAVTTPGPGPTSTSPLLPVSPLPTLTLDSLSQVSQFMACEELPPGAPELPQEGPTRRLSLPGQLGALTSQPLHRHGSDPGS

First: C=CCN1C(=O)/C(=C2/Sc3ccc(OC)cc3N2C)SC1=Nc1cccc(O)c1
Second: CCOc1ccc(N2C(=O)/C(=C/c3cccs3)N(CC(=O)OC)C2=S)cc1
The “hERG current change (%, negative = inhibition) at 10uM” value of the first is higher: 21.1% for the first, -28% for the second.

Going from COc1ccc(-c2nc3cccc(C)n3c2NCc2ccco2)cc1OC to COc1ccc(OC)c2c1sc(=NC(=O)c1ccco1)n2C, the “hERG current change (%, negative = inhibition) at 10uM” value rises from -42.2% to 14.8%.

Going from Cc1ccc2c(c1)-c1c(cnn1CC(=O)O)CO2 to Cc1ccc2c(c1)N(C(=O)CCC(=O)Nc1ccccc1Br)CC(C)O2 (stereo not drawn), the “hERG current change (%, negative = inhibition) at 10uM” value falls from 31.4% to -6.56%.

First: CN(c1ccccc1)S(=O)(=O)c1ccc(NC(=S)Nc2ccccc2)cc1
Second: CC(OC(=O)c1ccc(NC(=O)CC#N)cc1)C(=O)Nc1ccc(Oc2ccccc2)cc1 (stereo not drawn)
The “hERG current change (%, negative = inhibition) at 10uM” value of the first is lower: -6.18% for the first, 14.6% for the second.

Compared with CCOC(=O)c1c(C)[nH]c(O)c1C=Nc1ccc(C(F)(F)F)cc1, CCOC(=O)c1c(/N=C/c2ccc(C)cc2O)sc2c1CCN(C)C2 is lower in “hERG current change (%, negative = inhibition) at 10uM” value: 17% for the first, 2.41% for the second.

Going from O=C(COc1cccnc1[N+](=O)[O-])NCc1ccccc1 to O=C(O)COCC(=O)Nc1ccc(OCCc2ccccc2)cc1, the “hERG current change (%, negative = inhibition) at 10uM” value rises from -0.324% to 11.8%.

Going from COc1ccc(OCC(=O)NNC(=O)Cc2coc3cc(OC)ccc23)cc1 to CCOC(=O)c1cc(-c2ccccc2)sc1NC(=O)c1ccc(OC)cc1, the “hERG current change (%, negative = inhibition) at 10uM” value rises from -3.63% to 16.7%.

Compared with C(=NC12CN3CN(CN(C3)C1)C2)c1ccc2c(c1)OCO2, O=C(CSc1ncnc2ccccc12)Nc1ccc2c(c1)OCO2 is higher in “hERG current change (%, negative = inhibition) at 10uM” value: -13.3% for the first, -7.32% for the second.

Going from CCC(=O)N1CCc2cc(S(=O)(=O)CCC(=O)Nc3cccc(F)c3)ccc21 to CCCCN(c1ccccc1)S(=O)(=O)c1ccc2c(c1)CCN2C(=O)CCC(=O)O, the “hERG current change (%, negative = inhibition) at 10uM” value rises from 5.94% to 11%.

Going from COC(=O)c1ccc(COC(=O)CNC(=O)c2ccc(C)s2)cc1 to CN(C(=O)COC(=O)CNC(=O)c1ccccc1Cl)c1ccccc1, the “hERG current change (%, negative = inhibition) at 10uM” value rises from 6.01% to 18.3%.

Compared with O=C(Nc1ncccn1)C1c2ccccc2Oc2ccccc21, O=C(c1cnn(-c2nc3ccccc3s2)c1)c1ccccc1O is lower in “hERG current change (%, negative = inhibition) at 10uM” value: 11.9% for the first, 7.64% for the second.

Compared with O=C(Nc1ccc([N+](=O)[O-])cn1)c1ccc(Br)o1, O=C(Nc1cccnc1)c1ccc(-c2cc(Cl)ccc2Cl)o1 is higher in “hERG current change (%, negative = inhibition) at 10uM” value: -11.6% for the first, 18.3% for the second.

First: CCNc1c2c3c(cccc3n(C)c1=O)C(=O)c1ccccc1-2
Second: Cn1c(N)c(C(=O)c2cc(-c3ccncc3)nc3ccccc23)c(=O)n(C)c1=O
The “hERG current change (%, negative = inhibition) at 10uM” value of the first is lower: -4.97% for the first, 0.566% for the second.

Compared with Cc1cccc(C(=O)O/N=C2\CCSc3ccc(C)cc32)c1, Cc1ccc(C)c(/C=N/NC(=S)NCCc2ccccc2)c1 is lower in “hERG current change (%, negative = inhibition) at 10uM” value: 1.99% for the first, -2.51% for the second.

First: CCOCCCNCc1cc(Cl)ccc1OCC.Cl
Second: CCOc1ccc2nc(NCCCO)[nH]c2c1
The “hERG current change (%, negative = inhibition) at 10uM” value of the first is lower: -11.8% for the first, 4.96% for the second.

Compared with C=CCNC(=O)CCCC(=O)NCC=C, CC(C)CNC(=O)/C=C/C(=O)O is higher in “hERG current change (%, negative = inhibition) at 10uM” value: 8.13% for the first, 10.7% for the second.

Going from CC(NC(=O)c1ccccc1)c1nc2ccccc2n1Cc1ccc(C#N)cc1 (stereo not drawn) to COc1ccc2nc(SCC(=O)NC(C)c3ccccc3)[nH]c2c1 (stereo not drawn), the “hERG current change (%, negative = inhibition) at 10uM” value rises from -68.6% to 11.5%.

Going from COc1ccc(/C=C(\CC(=O)O)c2nc3ccccc3o2)cc1 to COc1ccc(Cc2nc3ccc(C(=O)N4CCCN(C=O)CC4)cc3o2)cc1, the “hERG current change (%, negative = inhibition) at 10uM” value falls from 11.8% to 5.54%.

Going from O=C(c1sccc1-n1cccc1)N1CCCC1 to O=C(CCNS(=O)(=O)c1ccccc1F)N1CCN(Cc2ccccc2)CC1, the “hERG current change (%, negative = inhibition) at 10uM” value falls from 18.8% to 0.133%.

First: COc1ccc(N2CCN(C(=O)CCCn3c(=S)[nH]c4cc5c(cc4c3=O)OCO5)CC2)cc1
Second: COc1ccc(N2CCN(C(=O)CNC(=O)Cn3c(C)cc4ccccc4c3=O)CC2)cc1
The “hERG current change (%, negative = inhibition) at 10uM” value of the first is higher: 11.7% for the first, -8.98% for the second.

Going from CCC(C)[C@H](N)c1cn([C@@H](Cc2ccc(O)cc2)C(=O)N2CCNCC2)nn1.Cl (stereo partly drawn) to CCS(=O)c1ccccc1C(=O)OC(C)C(=O)Nc1ccc(S(=O)(=O)N2CCCC2)cc1 (stereo not drawn), the “hERG current change (%, negative = inhibition) at 10uM” value falls from 15.2% to 7.31%.

First: O=C(O)CSc1nnc(C2CC2)n1-c1ccccc1
Second: COC(=O)C(C)n1cnc2c(nnn2-c2ccccc2)c1=O (stereo not drawn)
The “hERG current change (%, negative = inhibition) at 10uM” value of the first is higher: 0.585% for the first, -3.87% for the second.

Going from Cc1ccc(-c2nc3ncccc3o2)cc1NC(=O)c1cccnc1 to Cc1ccc(Oc2nc(-c3cccnc3)nc3ccccc23)c([N+](=O)[O-])n1, the “hERG current change (%, negative = inhibition) at 10uM” value rises from -11.9% to 11.9%.

First: COc1ccc2cc(CN(CCCN3CCOCC3)Cc3nnnn3C3CCCC3)c(=O)[nH]c2c1
Second: COCCn1nnnc1C(c1cc2cc(C)cc(C)c2[nH]c1=O)N1CCN(c2ccccc2F)CC1 (stereo not drawn)
The “hERG current change (%, negative = inhibition) at 10uM” value of the first is lower: -59.7% for the first, -23.1% for the second.

Compared with O=C(COC(=O)c1ccc2c(c1)C(=O)N(Cc1ccco1)C2=O)NCC(F)(F)F, O=C(c1cc2ccccc2oc1=O)N(Cc1ccc2c(c1)OCO2)Cc1ccco1 is lower in “hERG current change (%, negative = inhibition) at 10uM” value: -15.5% for the first, -59.3% for the second.

Going from O=C(CNC(=O)C12CC3CC(CC(C3)C1)C2)Nc1ncccc1O to c1ccn2cc(C34CC5CC(CC(C5)C3)C4)nc2c1, the “hERG current change (%, negative = inhibition) at 10uM” value falls from -15.5% to -28.8%.

First: O=C(O)CCCNS(=O)(=O)c1ccc2c(c1)OCCCO2
Second: CS(=O)(=O)c1ccc(Cl)c(NC(=O)CN2C(=O)C3CCCCC3C2=O)c1 (stereo not drawn)
The “hERG current change (%, negative = inhibition) at 10uM” value of the first is lower: -12% for the first, 10.7% for the second.

Going from COC/C=C1\CN2C3C[C@@H]1[C@H]1COC4=Nc5cc(OC)c(OC)c(OC)c5[C@@]43C[C@@H]12 to CCc1c(C)sc(NC(=S)N2CCN(S(C)(=O)=O)CC2)c1C(=O)OC, the “hERG current change (%, negative = inhibition) at 10uM” value falls from -2.85% to -5.72%.

Compared with O=C(NCc1ccc2c(c1)OCO2)c1cc2ccccc2oc1=O, CCOC(=O)c1nc(-c2ccc3c(c2)OCO3)[nH]c1C is lower in “hERG current change (%, negative = inhibition) at 10uM” value: 12% for the first, -13.7% for the second.

Compared with O=C(NC1CCCCC1)c1ccc(CS(=O)Cc2ccc(Cl)cc2)o1 (stereo not drawn), COCCNC(=O)C(c1ccc(C)o1)N(C(=O)C(=O)NC1CCCCC1)c1ccc(F)cc1 (stereo not drawn) is lower in “hERG current change (%, negative = inhibition) at 10uM” value: -21.7% for the first, -27.8% for the second.

Going from COCCOC(=O)c1c(C)oc2ccc(NS(=O)(=O)c3ccc(F)cc3)cc12 to COc1ccc(S(=O)(=O)/C(C#N)=C/Nc2cccc(F)c2)cc1, the “hERG current change (%, negative = inhibition) at 10uM” value rises from -26.8% to 17.2%.

Going from CCOc1ccccc1NC(=O)N1CCC(NC(=O)c2ccccc2C)CC1 to COc1ccccc1NC(=O)N1c2ccccc2NC(=O)CC1C (stereo not drawn), the “hERG current change (%, negative = inhibition) at 10uM” value rises from -1.06% to 7.25%.

First: N#CCCN(Cc1ccccc1)C(=O)c1cccs1
Second: O=c1oc2ccccc2n1CCCOc1ccccc1
The “hERG current change (%, negative = inhibition) at 10uM” value of the first is higher: 3.74% for the first, -27.5% for the second.

Compared with COC(=O)c1nn(-c2ccccc2)c(Cl)c1/C=N/OCc1c(Cl)cccc1Cl, Cc1nc2ccc(Br)cn2c1C(=O)N/N=C\c1ccccc1Cl is higher in “hERG current change (%, negative = inhibition) at 10uM” value: -27.8% for the first, 22.8% for the second.

Going from CNc1nc2c(Cl)cc(Cl)cc2s1 to NS(=O)(=O)c1ccc2nc(NC(=O)Nc3ccccc3F)sc2c1, the “hERG current change (%, negative = inhibition) at 10uM” value rises from 2.33% to 11.6%.

Going from O=C(NCCN1CCOCC1)c1ccncc1 to Cc1ccccc1CN(c1ccc(C(=O)NCC2CCCO2)cc1)S(C)(=O)=O (stereo not drawn), the “hERG current change (%, negative = inhibition) at 10uM” value falls from 6.71% to 3.91%.

Going from CCN(CC)Cc1c(C(=O)N/N=C/c2cccc(OCc3ccc(F)cc3)c2)nnn1-c1nonc1N to COc1cccc(OCCOc2ccccc2OC(C)C)c1, the “hERG current change (%, negative = inhibition) at 10uM” value rises from -2.61% to 6.55%.

Compared with Cc1ccc(-n2c(-c3ccncc3)nnc2-c2cccs2)cc1, Cc1ccc(-n2c(C)c([N+](=O)[O-])c3ccc(O)c(CN(C)C)c32)cc1 is lower in “hERG current change (%, negative = inhibition) at 10uM” value: 1.58% for the first, -23.6% for the second.

Going from OCCN1CCN(Cc2cccc(Oc3ccc(Cl)cc3)c2)CC1 to Cl.O=C(NC(=S)NC1CCN(Cc2ccccc2)CC1)c1ccc(F)cc1, the “hERG current change (%, negative = inhibition) at 10uM” value falls from -21.9% to -72.3%.

Compared with CCOC(=O)/C(C#N)=C\N(C)C, CCOC(=O)c1c(C)[nH]c(C2=NNC(=NC3CC3)SC2)c1C is lower in “hERG current change (%, negative = inhibition) at 10uM” value: 26.9% for the first, -30.1% for the second.

First: COc1ccccc1Oc1ncnc2sccc12
Second: COc1ccccc1CC(=O)Nc1ccc(S(=O)(=O)N2CC(C)CC(C)C2)cc1 (stereo not drawn)
The “hERG current change (%, negative = inhibition) at 10uM” value of the first is higher: 13.3% for the first, -7.25% for the second.

First: Cc1ccc(NC(=S)NNC(=O)c2ccccc2OC(F)F)cc1
Second: COC(=O)C(C(=O)OC)c1ccc(N)cc1
The “hERG current change (%, negative = inhibition) at 10uM” value of the first is lower: -0.615% for the first, -0.56% for the second.

Compared with CCCc1nc(SCC(=O)NC2CCCC2)c2ccccc2n1, COCCNc1nnc(SCC(=O)Nc2sc3c(c2C(=O)c2ccccc2)CCCC3)s1 is lower in “hERG current change (%, negative = inhibition) at 10uM” value: -3.29% for the first, -4.2% for the second.

Going from CCOC(=O)c1cc(NC(=O)c2cnccn2)cc(C(=O)OCC)c1 to CC(=O)c1c(C(C)=O)c(C)n(NC(=O)c2ccc(Cl)cc2)c1C, the “hERG current change (%, negative = inhibition) at 10uM” value rises from -5.78% to 12.5%.

Compared with Cc1nc(N)sc1N=Nc1c(C)n(C)n(-c2ccccc2)c1=O, CCN1CCN(C(=O)C(=O)c2cn(CC(=O)N(CC)CC)c3ccccc23)CC1 is higher in “hERG current change (%, negative = inhibition) at 10uM” value: -20% for the first, 14.2% for the second.
